{"source": "the supplement of paper PMC12067093", "about": "“Discovery and optimisation of a covalent ligand for TRIM25 and its application to targeted protein ubiquitination” (Chemical Science, 2025)", "compound": "CC1Cc2ccccc2N1C(=O)C1CCCN(C1)C(=O)CCl (mixture of isomers) [TRIM25 ligand 11 (diastereomer mixture)]", "test": "probe-labelled cysteine peptide fold change vs DMSO (competition) (log2 fold change); higher = less target engagement (more negative = stronger competition)", "details": "THP-1, incubation time: 4 h", "note": "About 21,000 targets were measured; listed, in parts, are those with the largest changes and a random draw of the rest.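 Note: competitive chemoproteomic profiling in live THP-1 cells with an iodoacetamide desthiobiotin (IA-DTB) probe, comparing probe-labelled peptide intensities in compound-treated cells against DMSO-treated controls.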"}
{"target": "GAK_O14976_1142_ACTQPRPNYASNFSVIGAR (UniProt O14976)", "values": [{"measurement": "probe-labelled cysteine peptide fold change", "setting": "10 µM", "result": -0.0658}, {"measurement": "probe-labelled cysteine peptide fold change", "setting": "50 µM", "result": -0.144}]}
{"target": "GNB1_P62873_317_VSCLGVTDDGMAVATGSWDSFLK<|>GNB2_P62879_317_VSCLGVTDDGMAVATGSWDSFLK (UniProt P62879+P62873)", "values": [{"measurement": "probe-labelled cysteine peptide fold change", "setting": "10 µM", "result": 0.028}, {"measurement": "probe-labelled cysteine peptide fold change", "setting": "50 µM", "result": -0.0309}]}
{"target": "HMGB1P1_B2RPK0_23_MSSYAFFVQTCR<|>HMGB1_P09429_23_MSSYAFFVQTCR<|>HMGB2_P26583_23_MSSYAFFVQTCR (UniProt P26583+P09429+B2RPK0)", "values": [{"measurement": "probe-labelled cysteine peptide fold change", "setting": "10 µM", "result": -0.212}, {"measurement": "probe-labelled cysteine peptide fold change", "setting": "50 µM", "result": -0.58}]}
{"target": "GNB1_P62873_271_ADQELMTYSHDNIICGITSVSFSK (UniProt P62873)", "values": [{"measurement": "probe-labelled cysteine peptide fold change", "setting": "10 µM", "result": 0.0202}, {"measurement": "probe-labelled cysteine peptide fold change", "setting": "50 µM", "result": 0.0391}]}
{"target": "GMPPA_Q96IJ6_118_DQILAGSPEAFFVLNADVCSDFPLSAMLEAHRR (UniProt Q96IJ6)", "values": [{"measurement": "probe-labelled cysteine peptide fold change", "setting": "10 µM", "result": 0.715}, {"measurement": "probe-labelled cysteine peptide fold change", "setting": "50 µM", "result": 0.22}]}
{"target": "HDAC1_Q13547_12_KVCYYYDGDVGNYYYGQGHPMKPHR (UniProt Q13547)", "values": [{"measurement": "probe-labelled cysteine peptide fold change", "setting": "10 µM", "result": -0.53}, {"measurement": "probe-labelled cysteine peptide fold change", "setting": "50 µM", "result": -0.431}]}
{"target": "HK3_P52790_840_AAQLCGAGVAAVVEK (UniProt P52790)", "values": [{"measurement": "probe-labelled cysteine peptide fold change", "setting": "10 µM", "result": 0.0352}, {"measurement": "probe-labelled cysteine peptide fold change", "setting": "50 µM", "result": -0.034}]}
{"target": "GNE_Q9Y223_520_TPLSDTLHLPVWVDNDGNCAALAER (UniProt Q9Y223)", "values": [{"measurement": "probe-labelled cysteine peptide fold change", "setting": "10 µM", "result": 0.0702}, {"measurement": "probe-labelled cysteine peptide fold change", "setting": "50 µM", "result": -0.106}]}
{"target": "GCLM_P48507_194_PNSNQVNLASCCVMPPDLTAFAK (UniProt P48507)", "values": [{"measurement": "probe-labelled cysteine peptide fold change", "setting": "10 µM", "result": 0.599}, {"measurement": "probe-labelled cysteine peptide fold change", "setting": "50 µM", "result": 0.0964}]}
{"target": "HDGF_P51858_12_CGDLVFAK (UniProt P51858)", "values": [{"measurement": "probe-labelled cysteine peptide fold change", "setting": "10 µM", "result": -0.108}, {"measurement": "probe-labelled cysteine peptide fold change", "setting": "50 µM", "result": -0.28}]}
{"target": "HAUS3_Q68CZ6_3_SCGNEFVETLK (UniProt Q68CZ6)", "values": [{"measurement": "probe-labelled cysteine peptide fold change", "setting": "10 µM", "result": 0.0288}, {"measurement": "probe-labelled cysteine peptide fold change", "setting": "50 µM", "result": 0.169}]}
{"target": "HNRNPD_Q14103_226_RGFCFITFK (UniProt Q14103)", "values": [{"measurement": "probe-labelled cysteine peptide fold change", "setting": "10 µM", "result": -0.152}, {"measurement": "probe-labelled cysteine peptide fold change", "setting": "50 µM", "result": -0.117}]}
{"target": "HRAS_P01112_80_TGEGFLCVFAINNTK (UniProt P01112)", "values": [{"measurement": "probe-labelled cysteine peptide fold change", "setting": "10 µM", "result": -0.0742}, {"measurement": "probe-labelled cysteine peptide fold change", "setting": "50 µM", "result": 0.0625}]}
{"target": "HERC1_Q15751_3818_DVLVVNCTAEWAAANHVLATCR (UniProt Q15751)", "values": [{"measurement": "probe-labelled cysteine peptide fold change", "setting": "10 µM", "result": 0.14}, {"measurement": "probe-labelled cysteine peptide fold change", "setting": "50 µM", "result": 0.145}]}
{"target": "HNRNPDL_O14979_177_FGEVVDCTIKTDPVTGR (UniProt O14979)", "values": [{"measurement": "probe-labelled cysteine peptide fold change", "setting": "10 µM", "result": -0.7}, {"measurement": "probe-labelled cysteine peptide fold change", "setting": "50 µM", "result": -0.524}]}
{"target": "GEMIN2_O14893_264_LLVDSKDDERVPALNLLICLVSR (UniProt O14893)", "values": [{"measurement": "probe-labelled cysteine peptide fold change", "setting": "10 µM", "result": -0.151}, {"measurement": "probe-labelled cysteine peptide fold change", "setting": "50 µM", "result": -0.204}]}
{"target": "HK2_P52789_438_LVPGCDVR (UniProt P52789)", "values": [{"measurement": "probe-labelled cysteine peptide fold change", "setting": "10 µM", "result": -0.0817}, {"measurement": "probe-labelled cysteine peptide fold change", "setting": "50 µM", "result": -0.0382}]}
{"target": "GYS1_P13807_564+575_SLDDSCSQLTSFLYSFCQQSR (UniProt P13807)", "values": [{"measurement": "probe-labelled cysteine peptide fold change", "setting": "10 µM", "result": -0.386}, {"measurement": "probe-labelled cysteine peptide fold change", "setting": "50 µM", "result": -0.281}]}
{"target": "HAUS3_Q68CZ6_123_CQLMASVTSHK (UniProt Q68CZ6)", "values": [{"measurement": "probe-labelled cysteine peptide fold change", "setting": "10 µM", "result": -0.0299}, {"measurement": "probe-labelled cysteine peptide fold change", "setting": "50 µM", "result": 0.225}]}
{"target": "HERPUD1_Q15011_86_HVLHLVCNVK (UniProt Q15011)", "values": [{"measurement": "probe-labelled cysteine peptide fold change", "setting": "10 µM", "result": 0.109}, {"measurement": "probe-labelled cysteine peptide fold change", "setting": "50 µM", "result": 0.551}]}
{"target": "HSD11B1_P28845_241_EECALEIIK (UniProt P28845)", "values": [{"measurement": "probe-labelled cysteine peptide fold change", "setting": "10 µM", "result": -0.0158}, {"measurement": "probe-labelled cysteine peptide fold change", "setting": "50 µM", "result": -0.0683}]}
{"target": "GLE1_Q53GS7_39_REDVLEECMSLPK (UniProt Q53GS7)", "values": [{"measurement": "probe-labelled cysteine peptide fold change", "setting": "10 µM", "result": 0.0139}, {"measurement": "probe-labelled cysteine peptide fold change", "setting": "50 µM", "result": -0.124}]}
{"target": "GAR1_Q9NY12_86_VVLLGEFLHPCEDDIVCK (UniProt Q9NY12)", "values": [{"measurement": "probe-labelled cysteine peptide fold change", "setting": "10 µM", "result": 0.0888}, {"measurement": "probe-labelled cysteine peptide fold change", "setting": "50 µM", "result": -0.0822}]}
{"target": "GEMIN2_O14893_63_RVQIEAAQCPDVVVAQIDPK (UniProt O14893)", "values": [{"measurement": "probe-labelled cysteine peptide fold change", "setting": "10 µM", "result": -0.176}, {"measurement": "probe-labelled cysteine peptide fold change", "setting": "50 µM", "result": -0.153}]}
{"target": "GLYR1_Q49A26_356_CYVDMSTVDADTVTELAQVIVSR (UniProt Q49A26)", "values": [{"measurement": "probe-labelled cysteine peptide fold change", "setting": "10 µM", "result": 0.496}, {"measurement": "probe-labelled cysteine peptide fold change", "setting": "50 µM", "result": 0.833}]}
{"target": "HDHD3_Q9BSH5_243_EHILPSLAHLLPALDCLEGSTPGL (UniProt Q9BSH5)", "values": [{"measurement": "probe-labelled cysteine peptide fold change", "setting": "10 µM", "result": 0.101}, {"measurement": "probe-labelled cysteine peptide fold change", "setting": "50 µM", "result": -0.0387}]}
{"target": "HIKESHI_Q53FT3_4_MFGCLVAGR (UniProt Q53FT3)", "values": [{"measurement": "probe-labelled cysteine peptide fold change", "setting": "10 µM", "result": -0.101}, {"measurement": "probe-labelled cysteine peptide fold change", "setting": "50 µM", "result": 0.2}]}
{"target": "HSD17B4_P51659_455_ELICHNQFSLFLVGSGGFGGK (UniProt P51659)", "values": [{"measurement": "probe-labelled cysteine peptide fold change", "setting": "10 µM", "result": 0.131}, {"measurement": "probe-labelled cysteine peptide fold change", "setting": "50 µM", "result": 0.277}]}
{"target": "HK2_P52789_823_EVCTVVAR (UniProt P52789)", "values": [{"measurement": "probe-labelled cysteine peptide fold change", "setting": "10 µM", "result": -0.0265}, {"measurement": "probe-labelled cysteine peptide fold change", "setting": "50 µM", "result": 0.0669}]}
{"target": "HARS_P12081_379_VPCVGLSIGVER (UniProt P12081)", "values": [{"measurement": "probe-labelled cysteine peptide fold change", "setting": "10 µM", "result": -0.14}, {"measurement": "probe-labelled cysteine peptide fold change", "setting": "50 µM", "result": 0.116}]}
{"target": "HLA-DRB1_P04229_59_CIYNQEESVRFDSDVGEYR (UniProt P04229)", "values": [{"measurement": "probe-labelled cysteine peptide fold change", "setting": "10 µM", "result": 0.137}, {"measurement": "probe-labelled cysteine peptide fold change", "setting": "50 µM", "result": 0.195}]}
{"target": "H2AFY_O75367_297_NCLALADDKK (UniProt O75367)", "values": [{"measurement": "probe-labelled cysteine peptide fold change", "setting": "10 µM", "result": -0.0509}, {"measurement": "probe-labelled cysteine peptide fold change", "setting": "50 µM", "result": -0.000868}]}
{"target": "HK1_P19367_256_MCINTEWGAFGDDGSLEDIRTEFDR (UniProt P19367)", "values": [{"measurement": "probe-labelled cysteine peptide fold change", "setting": "10 µM", "result": 0.0619}, {"measurement": "probe-labelled cysteine peptide fold change", "setting": "50 µM", "result": 0.177}]}
{"target": "GATD1_Q8NB37_179_DSGACFSASEPDAVHVVLDR (UniProt Q8NB37)", "values": [{"measurement": "probe-labelled cysteine peptide fold change", "setting": "10 µM", "result": 0.0266}, {"measurement": "probe-labelled cysteine peptide fold change", "setting": "50 µM", "result": -0.265}]}
{"target": "GHDC_Q8N2G8_502_AALAACPSSPFPPAMPR (UniProt Q8N2G8)", "values": [{"measurement": "probe-labelled cysteine peptide fold change", "setting": "10 µM", "result": -0.201}, {"measurement": "probe-labelled cysteine peptide fold change", "setting": "50 µM", "result": -0.832}]}
{"target": "GOT2_P00505_295_VGAFTMVCK (UniProt P00505)", "values": [{"measurement": "probe-labelled cysteine peptide fold change", "setting": "10 µM", "result": 0.0495}, {"measurement": "probe-labelled cysteine peptide fold change", "setting": "50 µM", "result": 0.216}]}
